In the supplement of paper PMC10369915:
Some of the results follow. Cut-off read from the data, not from the text of the source: active = 3.2 or more and inactive = the rest. Only a few entries rise above the background.

Assays:
Assay in all cases: enrichment score (SH2-bound / input frequency) (ratio); bacterial display of known human phosphotyrosine sites (pTyr-Var adds point mutants) read by sequencing; higher = stronger binding; tyrosines were phosphorylated by kinases first
Conditions in all cases: peptide library: pTyr-Var
SHP2 C-SH2 domain E139D = molecular target: SHP2 C-SH2 domain E139D
[1] = molecular target: SHP2 C-SH2 domain wild-type
SHP2 N-SH2 domain L43F = molecular target: SHP2 N-SH2 domain L43F
SHP2 N-SH2 domain T42A = molecular target: SHP2 N-SH2 domain T42A
SHP2 N-SH2 domain T52S = molecular target: SHP2 N-SH2 domain T52S
[2] = molecular target: SHP2 N-SH2 domain wild-type

Measured: enrichment score
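Note: displayed peptides selected on beads carrying the immobilized SH2 domain, with library peptides lacking any tyrosine serving as negative controls.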

VTSLKYSTPPY [BRIP1_Y916_S919P]
inactive: SHP2 C-SH2 domain E139D 0.881 | [1] 0.742 | SHP2 N-SH2 domain L43F 0.859 | SHP2 N-SH2 domain T42A 0.667 | SHP2 N-SH2 domain T52S 0.767 | [2] 1.11

PELINYHQHYS [BTK_Y361_N365Y]
inactive: SHP2 C-SH2 domain E139D 1.53 | [1] 1.6 | SHP2 N-SH2 domain L43F 1.12 | SHP2 N-SH2 domain T42A 1.11 | SHP2 N-SH2 domain T52S 1.54 | [2] 1.35

WVYNHYRWIIW [BRCA2_Y2624]
inactive: SHP2 C-SH2 domain E139D 2.91 | [1] 2.52 | SHP2 N-SH2 domain L43F 2.23 | SHP2 N-SH2 domain T42A 2.59 | SHP2 N-SH2 domain T52S 2.65 | [2] 2.75

SRIWVYNHYRC [BRCA2_Y2621_W2626C]
inactive: SHP2 C-SH2 domain E139D 1.64 | [1] 1.73 | SHP2 N-SH2 domain L43F 1.69 | SHP2 N-SH2 domain T42A 1.52 | SHP2 N-SH2 domain T52S 1.67 | [2] 1.83

WVYNHYRCIIW [BRCA2_Y2624_W2626C]
inactive: SHP2 C-SH2 domain E139D 2.14 | [1] 2.36 | SHP2 N-SH2 domain L43F 2.09 | SHP2 N-SH2 domain T42A 1.8 | SHP2 N-SH2 domain T52S 2.05 | [2] 2.35

EFKDAYTFAAD [BRDT_Y335_K336T_YF]
inactive: SHP2 C-SH2 domain E139D 0.489 | [1] 0.473 | SHP2 N-SH2 domain L43F 0.509 | SHP2 N-SH2 domain T42A 0.475 | SHP2 N-SH2 domain T52S 0.514 | [2] 0.48

MASISYDYCRV [BST2_Y6_T4I]
inactive: SHP2 C-SH2 domain E139D 0.872 | [1] 0.979 | SHP2 N-SH2 domain L43F 0.925 | SHP2 N-SH2 domain T42A 0.672 | SHP2 N-SH2 domain T52S 0.772 | [2] 0.943

PSDPSYEDTRE [BMPR1A_Y467_M470T]
inactive: SHP2 C-SH2 domain E139D 0.695 | [1] 0.308 | SHP2 N-SH2 domain L43F 0.753 | SHP2 N-SH2 domain T42A 0.62 | SHP2 N-SH2 domain T52S 0.658 | [2] 0.957

HKNNNYEPSLF [BRCA2_Y57_N60S]
inactive: SHP2 C-SH2 domain E139D 0.902 | [1] 0.698 | SHP2 N-SH2 domain L43F 1.01 | SHP2 N-SH2 domain T42A 0.535 | SHP2 N-SH2 domain T52S 0.63 | [2] 0.631

SRIWVYNHFRW [BRCA2_Y2621_YF]
active: SHP2 N-SH2 domain T42A 5.23
inactive: SHP2 C-SH2 domain E139D 3.11 | [1] 3.02 | SHP2 N-SH2 domain L43F 2.87 | SHP2 N-SH2 domain T52S 2.9 | [2] 2.77

HKLSFYEFDFE [BTK_Y40_YF]
inactive: SHP2 C-SH2 domain E139D 1.36 | [1] 1.38 | SHP2 N-SH2 domain L43F 1.51 | SHP2 N-SH2 domain T42A 1.44 | SHP2 N-SH2 domain T52S 1.12 | [2] 1.15

VTAALYGCLYE [BTD_Y536_R538C]
inactive: SHP2 C-SH2 domain E139D 1.33 | [1] 1.88 | SHP2 N-SH2 domain L43F 1.48 | SHP2 N-SH2 domain T42A 1.32 | SHP2 N-SH2 domain T52S 1.23 | [2] 1.77

MASTSYDFCRV [BST2_Y6_YF]
inactive: SHP2 C-SH2 domain E139D 0.957 | [1] 0.989 | SHP2 N-SH2 domain L43F 0.703 | SHP2 N-SH2 domain T42A 0.739 | SHP2 N-SH2 domain T52S 0.983 | [2] 1.01

VMAALYGRLYE [BTD_Y536_T532M]
inactive: SHP2 N-SH2 domain L43F 3.14 | SHP2 N-SH2 domain T42A 2.9 | [2] 3.03
active: SHP2 C-SH2 domain E139D 3.59 | [1] 3.22 | SHP2 N-SH2 domain T52S 3.86

WVFNHYRWIIW [BRCA2_Y2624_YF]
inactive: SHP2 C-SH2 domain E139D 2.71 | [1] 3.11 | SHP2 N-SH2 domain L43F 3.14 | SHP2 N-SH2 domain T42A 2.61 | SHP2 N-SH2 domain T52S 2.71 | [2] 3.07

KRFRIYHLATS [BRCA2_Y3009_YF]
inactive: SHP2 C-SH2 domain E139D 1.06 | [1] 1.03 | SHP2 N-SH2 domain L43F 1.56 | SHP2 N-SH2 domain T42A 1.24 | SHP2 N-SH2 domain T52S 2.36 | [2] 1.04

ISGLKYPVSQQ [BTK_Y375_R372G]
inactive: SHP2 C-SH2 domain E139D 0.9 | [1] 0.772 | SHP2 N-SH2 domain L43F 0.91 | SHP2 N-SH2 domain T42A 0.756 | SHP2 N-SH2 domain T52S 0.785 | [2] 0.842

PSDPSYEDMRE [BMPR1A_Y467]
inactive: SHP2 C-SH2 domain E139D 0.477 | [1] 0.254 | SHP2 N-SH2 domain L43F 0.433 | SHP2 N-SH2 domain T42A 0.293 | SHP2 N-SH2 domain T52S 0.453 | [2] 0.315

EFKDAYKFAAD [BRDT_Y335_YF]
inactive: SHP2 C-SH2 domain E139D 0.514 | [1] 0.609 | SHP2 N-SH2 domain L43F 0.59 | SHP2 N-SH2 domain T42A 0.494 | SHP2 N-SH2 domain T52S 0.714 | [2] 0.555

QLFGPYLRIHA [BSCL2_Y213_A212P_YF]
inactive: SHP2 C-SH2 domain E139D 1.91 | [1] 2.79 | SHP2 N-SH2 domain T42A 2.94 | [2] 1.94
active: SHP2 N-SH2 domain L43F 3.47 | SHP2 N-SH2 domain T52S 3.49

ISRLKYPVSQQ [BTK_Y375]
inactive: SHP2 C-SH2 domain E139D 1.3 | [1] 1.3 | SHP2 N-SH2 domain L43F 1.34 | SHP2 N-SH2 domain T42A 1.08 | SHP2 N-SH2 domain T52S 1.26 | [2] 1.8

MDNQEYKDAFT [BRDT_Y331_K336T_YF]
inactive: SHP2 C-SH2 domain E139D 0.698 | [1] 0.829 | SHP2 N-SH2 domain L43F 0.798 | SHP2 N-SH2 domain T42A 0.697 | SHP2 N-SH2 domain T52S 0.627 | [2] 0.583

HKLSYCEYDFE [BTK_Y40_Y40C]
inactive: SHP2 C-SH2 domain E139D 1.18 | [1] 1.04 | SHP2 N-SH2 domain L43F 0.908 | SHP2 N-SH2 domain T42A 0.905 | SHP2 N-SH2 domain T52S 0.787 | [2] 0.772

MSRLKYPVSQQ [BTK_Y375_I370M]
inactive: SHP2 C-SH2 domain E139D 1.01 | [1] 0.819 | SHP2 N-SH2 domain L43F 0.909 | SHP2 N-SH2 domain T42A 0.867 | SHP2 N-SH2 domain T52S 0.977 | [2] 1.12

NEKNIYGVPLM [BMPR2_Y247_R248G]
inactive: SHP2 C-SH2 domain E139D 0.894 | [1] 0.746 | SHP2 N-SH2 domain L43F 0.878 | SHP2 N-SH2 domain T42A 0.717 | SHP2 N-SH2 domain T52S 1.02 | [2] 0.92

KKFFSYAWPFF [BRDT_Y291_H288Y_YF]
inactive: SHP2 C-SH2 domain E139D 2.38 | [1] 1.68 | SHP2 N-SH2 domain L43F 3.09 | [2] 1.75
active: SHP2 N-SH2 domain T42A 3.29 | SHP2 N-SH2 domain T52S 4.12

MASTSYDYCRV [BST2_Y6]
inactive: SHP2 C-SH2 domain E139D 0.598 | [1] 0.677 | SHP2 N-SH2 domain L43F 0.481 | SHP2 N-SH2 domain T42A 0.6 | SHP2 N-SH2 domain T52S 0.443 | [2] 0.574

SISYDYCRVPM [BST2_Y8_T4I]
inactive: SHP2 C-SH2 domain E139D 0.771 | [1] 0.827 | SHP2 N-SH2 domain L43F 0.616 | SHP2 N-SH2 domain T42A 0.519 | SHP2 N-SH2 domain T52S 0.78 | [2] 0.794

WVYNHYRWFIW [BRCA2_Y2624_I2627F]
inactive: SHP2 C-SH2 domain E139D 1.92 | [1] 1.86 | SHP2 N-SH2 domain L43F 1.81 | SHP2 N-SH2 domain T42A 1.83 | SHP2 N-SH2 domain T52S 1.9 | [2] 2.05

VTAALYGRLFE [BTD_Y536_YF]
inactive: SHP2 C-SH2 domain E139D 1.46 | [1] 1.41 | SHP2 N-SH2 domain L43F 1.58 | SHP2 N-SH2 domain T42A 1.5 | SHP2 N-SH2 domain T52S 1.44 | [2] 1.23

KAALSYVSEIG [BPIFB2_Y36]
inactive: SHP2 C-SH2 domain E139D 0.784 | [1] 0.812 | SHP2 N-SH2 domain L43F 0.722 | SHP2 N-SH2 domain T42A 0.718 | SHP2 N-SH2 domain T52S 0.714 | [2] 0.775

RVKTPYSLKRW [BMPR2_Y979]
active: SHP2 C-SH2 domain E139D 3.28
inactive: [1] 2.56 | SHP2 N-SH2 domain L43F 2.76 | SHP2 N-SH2 domain T42A 3.06 | SHP2 N-SH2 domain T52S 2.88 | [2] 2.7

PELINYHQHFS [BTK_Y361_N365Y_YF]
inactive: SHP2 C-SH2 domain E139D 1.16 | [1] 0.984 | SHP2 N-SH2 domain L43F 1.25 | SHP2 N-SH2 domain T42A 1.04 | SHP2 N-SH2 domain T52S 1.07 | [2] 1.39

KPRKLYTIKKP [BRD2_Y715_P714L]
inactive: SHP2 C-SH2 domain E139D 0.852 | [1] 0.573 | SHP2 N-SH2 domain L43F 0.663 | SHP2 N-SH2 domain T42A 0.569 | SHP2 N-SH2 domain T52S 0.59 | [2] 0.61

DTKPAYQNLRQ [BOD1_Y82]
inactive: SHP2 C-SH2 domain E139D 1.29 | [1] 1.11 | SHP2 N-SH2 domain L43F 1.12 | SHP2 N-SH2 domain T42A 1.13 | SHP2 N-SH2 domain T52S 1.2 | [2] 1.16

VTSLKYSTPPF [BRIP1_Y916_S919P_YF]
inactive: SHP2 C-SH2 domain E139D 0.956 | [1] 0.76 | SHP2 N-SH2 domain L43F 0.99 | SHP2 N-SH2 domain T42A 0.814 | SHP2 N-SH2 domain T52S 0.931 | [2] 0.779

KRFRIYHLAIS [BRCA2_Y3009_T3013I_YF]
inactive: [2] 3.01
active: SHP2 C-SH2 domain E139D 3.98 | [1] 3.38 | SHP2 N-SH2 domain L43F 3.51 | SHP2 N-SH2 domain T42A 3.3 | SHP2 N-SH2 domain T52S 4.39
